Reference: the supplement of paper PMC3334620
Whole data set: some 33,000 sequences, median “E-score (-0.5 to 0.5)” near -0.021, cut for the highest 2% near 0.32. The list shows a part of the results.

Target: T1, Zap1 (UniProt P47043)
T1 sequence: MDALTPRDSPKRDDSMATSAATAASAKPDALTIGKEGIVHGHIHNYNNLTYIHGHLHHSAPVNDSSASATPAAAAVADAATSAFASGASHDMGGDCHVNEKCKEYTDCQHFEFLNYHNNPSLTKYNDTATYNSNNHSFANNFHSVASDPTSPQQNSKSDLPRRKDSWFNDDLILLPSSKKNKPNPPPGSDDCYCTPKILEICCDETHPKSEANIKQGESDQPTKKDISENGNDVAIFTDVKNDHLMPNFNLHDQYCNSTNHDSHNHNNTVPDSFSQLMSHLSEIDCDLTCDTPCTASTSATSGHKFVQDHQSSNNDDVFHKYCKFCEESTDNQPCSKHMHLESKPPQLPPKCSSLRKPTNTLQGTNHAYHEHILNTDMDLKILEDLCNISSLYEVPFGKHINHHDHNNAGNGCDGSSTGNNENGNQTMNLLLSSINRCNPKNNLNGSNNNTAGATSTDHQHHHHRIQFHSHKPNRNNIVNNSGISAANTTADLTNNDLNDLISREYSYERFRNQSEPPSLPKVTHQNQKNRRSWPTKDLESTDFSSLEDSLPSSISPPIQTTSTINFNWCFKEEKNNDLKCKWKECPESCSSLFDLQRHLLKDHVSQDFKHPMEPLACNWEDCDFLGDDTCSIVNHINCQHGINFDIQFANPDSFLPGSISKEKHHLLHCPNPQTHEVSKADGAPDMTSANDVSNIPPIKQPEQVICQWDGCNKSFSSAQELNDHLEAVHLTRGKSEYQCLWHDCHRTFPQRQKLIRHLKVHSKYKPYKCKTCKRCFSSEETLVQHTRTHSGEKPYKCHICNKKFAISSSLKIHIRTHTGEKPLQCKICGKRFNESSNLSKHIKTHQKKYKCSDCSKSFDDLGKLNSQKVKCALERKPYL
Experiment: PBM E-score (8-mer binding enrichment) (E-score (-0.5 to 0.5)); higher = stronger / more preferred TF binding; most listed sequences are background and not binding sites
Details: protein concentration: 200 nM; construct: GST-full length
Procedure: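 Universal 'all 10-mer' protein binding microarrays (Agilent AMADID 015681) probed with GST-tagged S. cerevisiae TFs (full-length or DBD) made by in vitro transcription/translation (PURExpress), about 100-200 nM. Bound TF was detected with fluorescent anti-GST. Each ungapped 8-mer (which stands for itself and its reverse complement) is scored by the PBM enrichment score (E-score), a modified Wilcoxon-Mann-Whitney statistic from -0.5 to +0.5, computed with the Universal PBM Analysis Suite. Scale: above 0.35 generally sequence-specific binding.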

Sequence	PBM E-score
AAAGTACC	0.273
AATATCAG	-0.0392
ACTATAGT	0.197
GTTCGCAA	0.142
CTGCGGCC	-0.141
CTGCGGGC	-0.0989
CTGAAATA	0.0704
AACCTTCC	0.21
GCGTCACC	-0.0628
CAGAAACG	0.0804
ATCGAAAA	0.073
AAAGTTTA	0.144
TAATTACA	0.177
CGGGCGCA	-0.109
GATGAAAC	0.0977
ACCATACG	-0.0138
AGCGAATG	-0.275
AGCGGGGC	-0.162
AAGGCCTG	-0.218
GGTTTACA	0.17
AGTAACGC	0.0343
AAACATGC	0.158

Sequence	PBM E-score
ATTAGCTG	-0.0371
ATCCAAAA	0.188
GCTTCAGA	-0.167
GAACTAGC	-0.0962
CTCATGAG	0.111
CCATAAGA	0.0547
AACGTTTC	-0.0689
CAGTAAAG	0.105
GGTAGTGA	0.29
CGCAGAAA	-0.025
GGACGACA	0.0683
ATTGGCCC	-0.0946
CCGCGGAC	-0.0519
CACCAGCG	-0.23
ATACTACA	0.18
AACTTAAA	0.107
AATGAGAG	-0.104
AACACTGT	-0.00483
GACGGAAA	0.0423
CTTGCCCA	-0.169
AGTCAGTG	-0.124
AGGAAACC	0.272

Sequence	PBM E-score
ACACGGGG	-0.118
AGCAGCCT	-0.168
AAATTTCG	-0.0634
CCGTAAAA	0.271
GGGTAAAA	0.306
TCGTCTCA	-0.0937
CAGCAAAA	0.0634
CCCCCGCG	-0.11
GCATTCGA	-0.15
CTCTTACC	0.16
AAAGCTAC	-0.253
CACCAACG	-0.0632
CTCCTCTA	-0.143
ATCAGACC	-0.0972
GGAAGTCC	-0.15
GATGTAGC	-0.265
ATCGCAAC	0.151
AATGAGCT	-0.165
AATATGCA	-0.114
AAAGGCTC	0.0709
ACCTCTTA	0.274
TCTCACAA	0.00609

Sequence	PBM E-score
CTGATTCA	-0.158
CAGTTGGA	-0.004
ATCAAAAC	0.132
CGTCGATA	-0.091
GACTATCA	-0.0335
GAAGAGTC	-0.266
CCCTGATA	-0.0332
ATGTTAAA	0.0569
CATTGCCC	-0.156
ACGGATGG	-0.0981
GCCTCATA	-0.143
ACGAGGGC	-0.126
AGGGCGAG	-0.23
AGTAATCC	-0.121
ACTGGTCG	-0.123
GACAGCAA	-0.0348
CGGTAAAG	0.0257
ACGATCTA	-0.0931
CTGGACCC	0.0712
GATCGCAC	-0.131
